Laboratory results: PubChem BioAssay AID686979 (National Center for Advancing Translational Sciences (NCATS), 2013)
In all, about 420,000 compounds went through this assay and about 50,000 (12%) were called active. Not shown: some 26% with an inconclusive outcome. The call rests on the fitted dose curve; in most records, active means well fitted inhibition curve with a large enough effect; inconclusive means small, poorly fitted or top-dose-only effect; inactive means flat fitted curve, though single readings scatter. The entries are a selection whose mix differs from that of the whole data set.

test: qHTS for Inhibitors of human tyrosyl-DNA phosphodiesterase 1 (TDP1): qHTS in cells in presence of CPT; conditions: chicken DT40 Tdp1-/-;hTDP1 cells + 20 nM CPT, ATP luminescence, 48 h; series mostly up to 46.2 µM; activity change, negative = growth inhibition: at the top concentration; further: nearly all actives have a fitted effect of over 55% in size
How it was run: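 Chicken DT40 Tdp1-/- cells stably complemented with human TDP1 were seeded at 400 cells/well in medium containing 20 nM camptothecin, exposed to pin-transferred compounds, and grown at 37 °C for at least 48 hr. Viability was read as ATP luminescence.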
On the % scale 0 is the no-effect control and ±100 the full control effect; potency means the concentration at half of the fitted maximal effect.

Structure (SMILES) | activity change, negative = growth inhibition | Potency
CN1C(=O)/C(=C\c2ccc(OC(=O)c3ccco3)cc2)SC1=S | inactive: -11.9% | 
COc1ccccc1NC(=O)C1=C(C)Nc2nc(CCCO)nn2C1c1cccnc1 (stereo unspecified) | inactive: 33.9% | 
CCCc1cc(=O)[nH]c(SCC(=O)N2CCc3cc(OC)c(OC)cc3C2)n1 | inactive: -0.355% | 
CCOC(=O)CNc1nc(Oc2ccc(=O)n(C)n2)nc(N(CC)CC)n1 | inactive: -10.2% | 
COc1ccc(N2CCN(C3CC(=O)N(Cc4ccccc4)C3=O)CC2)cc1 (stereo unspecified) | inactive: 24.3% | 
N#Cc1nc(N(c2ccccc2)c2ccccc2)nc(-n2cccc2)n1 |  | active: 7.08 µM
CN1C(=O)Cc2cc(S(=O)(=O)N3CCN(c4ccc(Cl)cc4)CC3)ccc21 | inactive: -2.52% | 
Cc1nn(Cc2noc(C(=O)NCc3ccc(F)cc3)n2)c(C)c1Br | inactive: -9.7% | 
COc1cc(CCC(=O)Nc2ccc(Cl)c(C(F)(F)F)c2)cc(OC)c1OC |  | active: 18.4 µM
O=C(O)CCC(=O)NNc1ncnc2ccccc12 | inactive: 17.8% | 
O=C1CC[C@H](O)CCN1[C@H](CSc1ccccc1)Cc1ccccc1 | inactive: -0.303% | 
CN(c1ccccc1)S(=O)(=O)c1cc(Cl)ccc1Cl | inactive: 6.52% | 
CCOc1ccc(/C=C/C(O)=C2/C(=O)NC3(C)CC2c2ccccc2O3)cc1OC (stereo unspecified) |  | active: 5.17 µM
CCOc1ccc(Cn2nnc(C(=O)NCc3ccc(OC)cc3)c2N)cc1 | inactive: 3.16% | 
CC12C(=O)OC(=O)C1(C)C1CCC2O1 (stereo unspecified) |  | inactive
CCC(OC(=O)c1ccco1)C(=O)NCc1ccco1 (stereo unspecified) | inactive: -2.83% | 
CCOc1ccc(S(=O)(=O)N(C)c2ccc(OCC(=O)Nc3nccs3)cc2)cc1 | inactive: 16% | 
CC(C)(C)[C@H]1CCC(=O)N([C@H](CSc2ccccc2)Cc2ccccc2)CC1 |  | active: 23.1 µM
C/C(=N/Nc1ccc(C(=O)O)cc1)c1ccc2c(c1)Nc1ccccc1S2 | inactive: -7.54% | 

Structure (SMILES) | activity change, negative = growth inhibition | Potency
O=C(NC(C(=O)c1ccccc1)N1CCCCCC1)c1ccco1 (stereo unspecified) |  | active: 23.1 µM
CCN(CC)c1cc(C)c2cc(NC(=O)CNC(C)=O)ccc2n1 | inactive: 32.3% | 
COc1ccc(NC(=O)C2CCCN(S(=O)(=O)c3c(C)[nH]c(=O)[nH]c3=O)C2)cc1 (stereo unspecified) |  | inactive
COc1cccc(C=C(C(C)=O)C(=O)c2ccccc2)c1 |  | active: 20.6 µM
CCCCC(CC)CNC(=O)CCCCn1c(=O)[nH]c2ccsc2c1=O (stereo unspecified) | inactive: -19.6% | 
Cc1ccc(S(=O)(=O)N2CCOCC2)c(C)c1NS(C)(=O)=O | inactive: 34.2% | 
Cc1occc1C(=O)N/N=C/C=C/c1ccccc1[N+](=O)[O-] | inactive: 7.45% | 
COc1cccc(S(=O)(=O)N(C)C[C@H]2Oc3ncc(Br)cc3C(=O)N([C@H](C)CO)C[C@H]2C)c1 | inactive: -18.9% | 
NC1(C(=O)O)CC1 | inactive: -2.14% | 
OCCC1CN(Cc2cccnc2)CCN1CCc1ccccc1 (stereo unspecified) | inactive: 39.5% | 
Nc1nc(SCC(=O)N2N=C3/C(=C/c4ccco4)CCCC3C2c2ccco2)n[nH]1 (stereo unspecified) | inactive: -25.5% | 
COc1ccc(CNC(=O)CC(C)CC2=NS(=O)(=O)c3ccccc3N2)cc1 (stereo unspecified) | inactive: -2.79% | 
CN(c1ccc(C(=O)NCc2ccc3c(c2)OCO3)cc1)S(=O)(=O)c1ccccc1 | inactive: 1.77% | 
CN(C)CCC(c1ccc(Br)cc1)c1ccccn1 (stereo unspecified) |  | inactive
Cc1cc(C)n(-c2ccc(Oc3ccccc3)c(S(=O)(=O)O)c2)n1 | inactive: 6.29% | 
C/C(N)=C(/C#N)C(=O)COC(=O)c1cc(C)n(-c2ccc(F)cc2)c1C | inactive: -25.9% | 
COc1ccc2c(c1)-c1nc(NC(=O)c3cc(Cl)ccc3OC)sc1CC2 |  | active: 8.2 µM
Cc1cccc(C)c1OC(=O)Cc1ccccc1[N+](=O)[O-] | inactive: 20.1% | 
CC(C)(C)OC(=O)N1CCC(c2c(C(=O)N3CCN(C(=O)c4ccco4)CC3)cnn2-c2ccc(F)cc2F)CC1 | inactive: -12.8% | 

Structure (SMILES) | activity change, negative = growth inhibition | Potency
COc1ccc(CNC(=O)COC(=O)c2ccco2)cc1 | inactive: 40.2% | 
CCCC[C@H]1COCCS(=O)(=O)N1Cc1cccc(F)c1 | inactive: -25.7% | 
C[C@@H]1CN([C@@H](C)CO)C(=O)c2cc(N(C)C)ccc2O[C@@H](C)CCCCO[C@@H]1CN(C)S(=O)(=O)c1cccs1 |  | active: 18.4 µM
C[C@@H](NC(=O)C1(c2ccccc2)CCN(C(=O)OC(C)(C)C)CC1)C(=O)N[C@@H](C(=O)O)c1ccccc1 | inactive: 37.6% | 
COc1ccc(-c2cc3nc(-c4ccccc4)cc(N4CCN(C(=O)c5ccsc5)CC4)n3n2)cc1 |  | active: 7.31 µM
O=C(CCNS(=O)(=O)c1cccc2nsnc12)NCc1ccc(F)cc1 | inactive: 35.7% | 
CCN(CC)c1ccc(S(=O)(=O)N2CCOCC2)cc1NC(=O)CSC(=S)N1CCCC1 |  | active: 18.4 µM
CC(C)C(=O)OCC(=O)NCc1ccccc1Cl | inactive: 31.7% | 
CC[C@](N)(CCC(=O)O)C(=O)O |  | inactive
CCOc1ccccc1CNC(=O)CCc1cn(C)c2ccccc12 | inactive: -9.58% | 
NC(=O)c1ccc[n+]([C@@H]2OC(COP(=O)([O-])OP(=O)(O)OCC3OC(n4cnc5c(N)ncnc54)C(O)C3O)C(O)C2O)c1 (stereo partly specified) | inactive: -0.785% | 
CC1=NS(=O)(=O)c2cc(Cl)ccc2N1 |  | inactive
Cc1[nH]nc(N=Cc2c(O)n(C)c(=O)n(C)c2=O)c1-c1ccccc1 | inactive: 32.8% | 
COc1ccc([C@H](OC)[C@@]2(Cc3ccc(O)cc3)N=C(N)N(C)C2=O)cc1 | inactive: -1.43% | 
CCn1nc(C)c(C2C(C#N)=C(N)OC3=C2C(=O)CCC3)c1C (stereo unspecified) | inactive: 31% | 
CCOc1ccccc1C(=O)N[C@H](C(=O)NCc1ccccc1)C(C)C | inactive: 33.7% | 
CC(CNC1CCCCC1)OC(=O)c1ccccc1 (stereo unspecified) | inactive: -23.3% | 
Cc1ccc(-c2cc(C(F)(F)F)nn2-c2ccc(S(N)(=O)=O)cc2)cc1 | inactive: -20.1% | 
